Test results published in PMC4496341.
These are yes or no findings as the source states them, for the method shown. Binding seen in cells or lysates may run through a third protein. Some entries that bind do so weakly or less than the wild type.

Sequences of proteins named here, by UniProt entry; tags and fusion partners are left off. A change or cut given only in a name is not applied to a line headed by its entry.
UniProt P30086: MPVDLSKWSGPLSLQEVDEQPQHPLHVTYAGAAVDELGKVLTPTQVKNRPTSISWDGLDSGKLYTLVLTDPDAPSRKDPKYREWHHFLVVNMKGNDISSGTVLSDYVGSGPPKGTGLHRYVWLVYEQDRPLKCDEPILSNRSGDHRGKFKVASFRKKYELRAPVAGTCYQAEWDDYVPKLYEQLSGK
UniProt O95863: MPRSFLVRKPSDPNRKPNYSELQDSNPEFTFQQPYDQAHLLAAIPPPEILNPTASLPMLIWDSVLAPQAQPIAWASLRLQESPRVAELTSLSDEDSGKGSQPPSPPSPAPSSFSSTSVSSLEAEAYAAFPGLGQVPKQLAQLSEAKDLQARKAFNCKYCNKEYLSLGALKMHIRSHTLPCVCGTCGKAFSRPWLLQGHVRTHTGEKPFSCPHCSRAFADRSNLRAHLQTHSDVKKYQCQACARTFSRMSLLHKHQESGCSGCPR
UniProt P35240: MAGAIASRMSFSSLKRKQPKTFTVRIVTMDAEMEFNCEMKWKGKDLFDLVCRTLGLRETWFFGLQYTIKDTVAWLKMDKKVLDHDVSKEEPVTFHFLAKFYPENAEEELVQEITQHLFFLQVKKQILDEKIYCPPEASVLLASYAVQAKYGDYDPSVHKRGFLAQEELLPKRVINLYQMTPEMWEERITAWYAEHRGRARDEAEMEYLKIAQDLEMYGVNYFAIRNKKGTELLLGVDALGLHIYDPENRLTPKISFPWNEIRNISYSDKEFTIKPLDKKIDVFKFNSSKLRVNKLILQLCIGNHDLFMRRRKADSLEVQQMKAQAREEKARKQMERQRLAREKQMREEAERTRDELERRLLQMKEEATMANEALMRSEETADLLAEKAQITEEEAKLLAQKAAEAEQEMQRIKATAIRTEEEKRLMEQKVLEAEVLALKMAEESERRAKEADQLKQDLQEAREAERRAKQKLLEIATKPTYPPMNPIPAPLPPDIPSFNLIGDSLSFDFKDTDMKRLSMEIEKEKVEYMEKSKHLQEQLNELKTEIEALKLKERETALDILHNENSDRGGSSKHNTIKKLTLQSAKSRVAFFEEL

Experiments:
[1] = target: RKIP in A549 cells (precipitated with RKIP Ab) (human (endogenous in A549)) (UniProt P30086); assay: co-IP; A549 cells incubated with silica for 2 hr and with the proteasome inhibitor ALLN for 4 hr; IP with Snail Ab or RKIP Ab; RIPA buffer
[2] = target: Snail in A549 cells (precipitated with Snail Ab) (human (endogenous in A549)) (UniProt O95863); assay: as above
[3] = target: Snail of Figure 6F (precipitated by anti-Snail Ab) (UniProt O95863); assay: co-IP; the indicated protein incubated with whole-cell extracts from A549 cells transfected with the indicated vectors in RIPA buffer for 1 hr; co-precipitated by anti-Snail Ab, IgG as control (Figure 6F)
[4] = target: Snail of the GST-pull down assays of Figure 6B and 6E (UniProt O95863); assay: pull-down; GST-pull down of Snail and NF2 with increasing RKIP-lysates added (Figure 6E); only the target purified
[5] = target: Agarose-conjugated GST-RKIP (UniProt P30086); assay: pull-down; GST-RKIP pull-down of NF2 with increasing Snail lysate added (Figure 6D), same condition as Figure 6A; only the target purified
[6] = target: Snail of the GST-pull down assays of Figure 6B and 6E (UniProt O95863); assay: pull-down; GST-pull down of Snail and NF2 (Figure 6B); which partner was on the beads is not stated; methods: RIPA buffer, 1 h, 4°C; only the target purified
[7] = target: Agarose-conjugated GST-RKIP (UniProt P30086); assay: pull-down; agarose-conjugated GST-RKIP incubated with NF2, p53 or Snail transfected HEK293 lysate in RIPA buffer for 1 hr (methods: 4°C); Western blot of precipitate and supernatant; only the target purified
[8] = target: NF2-FLAG (Isoform 1 of merlin), full length, in transfected HEK293 lysate (UniProt P35240); assay: pull-down; competition in the GST-RKIP pull-down of NF2: increasing Snail lysate against NF2 in lysate (Figure 6D)

Substance	binding [3]	binding [6]	binding [7]	other results
NF2 in A549 cells (from UniProt P35240 1-595)				binding [1]: binds; binding [2]: binds
NF2-FLAG (Isoform 1 of merlin), full length, in extracts of transfected A549 cells (from UniProt P35240 1-595)	binds			
NF2-FLAG (Isoform 1 of merlin), full length, in transfected HEK293 lysate (from UniProt P35240 1-595)		binds	binds	binding [4]: binds; binding [5]: binds
NF2-N-TERM-FLAG 1-332 AA, in extracts of transfected A549 cells (from UniProt P35240 1-332) (domain or fragment)	binds			

More lines, main results first:

binding [3]	binding [6]	binding [7]	Substance	other results
	binds	binds	NF2-N-TERM-FLAG 1-332 AA, in transfected HEK293 lysate (from UniProt P35240 1-332) (domain or fragment)	
		no binding	Snail, in transfected HEK293 lysate (from UniProt O95863 1-264)	binding [8]: binds
